In all, about 380,000 compounds went through this assay and about 4,000 (1.1%) were called active. This list was built around the results that the source calls inconclusive (neither active nor inactive); the mix of calls is not that of the screen. The call rests on the fitted dose curve; in most records, active means well fitted activation curve with a large enough effect; inconclusive means small, poorly fitted or top-dose-only effect; inactive means no such curve, though single readings can be large or run the other way. Potencies beside an inconclusive call are fits to weak or partial responses and may not hold up.
Assay: qHTS Assay to Identify Small Molecule Activators of BRCA1 Expression; further: nearly all actives have a fitted effect of over 80% in size
Conditions: MCF7-BRCA1-FFLuc reporter, luminescence, 48 h; activation: at 46.1 µM (top of the series), scaled: vehicle 0%, 10 µM genistein 100% unless noted
Procedure, shortened: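 Cells: MCF7-BRCA1-FFLuc, 2000/well. Exposure: 48 h, 37 °C, 5% CO2. Read: luminescence, 15 min post-substrate. Controls: genistein 10 microM (maximal activation), DMSO (neutral).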
Potency means the concentration at half of the fitted maximal effect; tags describe the fitted curve by direction and shape.

Structure (SMILES) | Potency | activation
N#CC(C(=O)c1ccco1)c1ccccn1 (stereo not given) | active: 14.1 µM | –
CC(C)c1ccc(/C=C/C(=O)N2CCOCC2)cc1 | inconclusive: 2.82 µM [activator, full curve, poor fit] | –
CC(=O)c1cccc(NC(=O)c2ccc(CN3CCc4ccccc4C3)cc2)c1 | inactive | –
O=C(NC(=S)NC(CO)Cc1ccccc1)c1ccc(F)cc1 (stereo not given) | inconclusive: 14.1 µM [activator, single point] | –
O=C(Nc1nnc(-c2ccccc2F)s1)C1CCCO1 (stereo not given) | inconclusive: 10 µM [activator, partial curve, poor fit] | –
O=C(c1ccco1)N1CCC(c2ccccc2)C1 (stereo not given) | inconclusive: 12.6 µM [activator, partial curve, poor fit] | –
Cc1cc(-c2n[nH]c(=S)o2)c(C)n1-c1ccccc1 | inconclusive: 2 µM [activator, partial curve, poor fit] | –
O=C(N/N=C/c1c[nH]c2ccccc12)c1cccc(O)c1 | active: 12.6 µM | –
COc1ccc(CCN(C)C(=O)CCc2nnc(-c3ccccc3)o2)cc1OC | inconclusive: 7.08 µM [activator, full curve, poor fit] | –
O=C(Cc1ccccc1)c1ccc(N2CCOCC2)cc1 | active: 11.2 µM | –
CCOc1ccc2nc(NC(=O)COC)sc2c1 | inconclusive: 1.26 µM [activator, partial curve, poor fit] | –
CC1=CC(=O)C(C(C)C)=CC1=NC(=O)c1ccc(C)cc1 | inactive | –
O=C(/C=C/c1ccccc1)Nc1cccnc1Cl | active: 10 µM | –
Nc1cccn2c(-c3ccc(Cl)cc3)cnc12 | inconclusive: 7.08 µM [activator, partial curve, poor fit] | –
NC(=O)c1sc2nc(-c3ccco3)ccc2c1N | active: 2.51 µM | –
CCOC(=O)c1sc(-c2ccc(Br)cc2)cc1N | active: 7.08 µM | –
COc1ccc(-c2[nH]nc3c2C2(C(=O)N(CC(=O)O)c4ccccc42)C(C#N)=C(N)O3)cc1OC (stereo not given) | inactive | –
Cc1ccc(C(=O)NCCC(=O)N2CCCC2)cc1 | inconclusive: 3.16 µM [activator, full curve, poor fit] | –
O=C(CO/N=C/c1cccc([N+](=O)[O-])c1)NC1CCCCC1 | inactive | –
O=C(Nc1ccc(Cl)cc1)c1ccc(OC2CSC2)cc1 | inconclusive: 10 µM [activator, partial curve, poor fit] | –
CN(c1cccc(NC(=O)c2ccc(C(C)(C)C)cc2)c1)S(C)(=O)=O | inconclusive: 1.58 µM [activator, partial curve, poor fit] | –
COc1ccc(NC(=O)Nc2cccnc2)cc1 | inconclusive: 8.91 µM [activator, partial curve, poor fit] | –
CCc1ccc(Oc2cc(Cl)nc(N)n2)cc1 | inconclusive: 11.2 µM [activator, partial curve, poor fit] | –
COc1cc(NC(=O)C2CC2)c(C(=O)O)cc1OC | inactive | –
CC(=NNC(=S)N1CCN(c2ccccn2)CC1)c1ccccn1 | inactive | –

Structure (SMILES) | Potency | activation
CCCCN1C(=O)C2Cc3c([nH]c4ccccc34)CN2C1=S (stereo not given) | inactive | –
C/C(Cl)=C\Cn1c(Nc2ccccc2)nc2c1c(=O)n(C)c(=O)n2C | inactive | –
CCCCc1nc2cc(C(=O)N(C)C3CCOCC3)ccc2o1 | inconclusive: 10 µM [activator, partial curve, poor fit] | –
CN(C(=O)C1CCC(=O)N(Cc2cccc(F)c2)C1)C1CCCCC1 (stereo not given) | active: 7.94 µM | –
Nc1ccccc1C(=O)N1CCc2ccccc21 | inconclusive: 12.6 µM [activator, partial curve, poor fit] | –
O=C(CSc1ccc(-c2cccc([N+](=O)[O-])c2)nn1)N1CCCCC1 | inconclusive: 35.5 µM [activator, single point] | –
CCN(CC)c1ccc(/C=C2\C=Cc3ccccc32)cc1 | active: 4.47 µM | –
Cc1ccc2c(c1)C(=C(C#N)C#N)C(=O)N2CCN1CCOCC1 | inactive | –
CCOc1ccc(-c2nnc(-c3ccco3)o2)cc1OCC | inconclusive: 11.2 µM [activator, partial curve, poor fit] | –
COc1ccc(C2=NOC(C(=O)NCC(C)C)C2)cc1 (stereo not given) | inconclusive: 11.2 µM [activator, partial curve, poor fit] | –
O=C(NCCCCc1ccccc1)Nc1cccc(F)c1 | inconclusive: 3.55 µM [activator, single point] | –
CCOC(=O)c1cnc2c(-c3ccc(Cl)cc3)cnn2c1C | inconclusive: 1.12 µM [activator, full curve, poor fit] | –
COc1ccc(OCCC(=O)N2CCCCC2)cc1 | active: 11.2 µM | –
CCCN(CCC)CCNC(=O)CCC(=O)Nc1ccc2nc(N3CCOCC3)cc(C)c2c1 | inconclusive: 17.8 µM [activator, partial curve, poor fit] | –
CCc1ccc(-c2nnn(CCC#N)n2)cc1 | active: 12.6 µM | –
O=c1c2sccc2nc(SCc2cc(=O)n3cc(Cl)ccc3n2)n1Cc1ccccn1 | inconclusive: 8.91 µM [activator, partial curve, poor fit] | –
CN(CC(=O)N1CCN(c2ccccc2)CC1)S(=O)(=O)c1cccs1 | inconclusive: 35.5 µM [activator, single point] | –
CN(C)CCCNC(=O)c1ccc(-c2cc3nc(NCc4cccnc4)n(C)c(=O)c3s2)cc1 | inactive | –
O=C(NCc1ccc(F)cc1)c1nc(-c2cccs2)no1 | inactive | –
Cc1cc(C(=O)CN2C(=O)C3CC=CCC3C2=O)c(C)n1-c1ccccc1 (stereo not given) | – | inconclusive: 73.1% [activator]
COCCCNC(=S)Nc1ccc(N2CCCCC2)cc1 | inconclusive: 12.6 µM [activator, partial curve, poor fit] | –
Fc1ccc(CSc2ncnc3c2ncn3C2CCCCO2)cc1 (stereo not given) | active: 7.08 µM | –
CCC(=O)n1nc(-c2ccc(OC)cc2)nc1NCc1cccs1 | inconclusive: 14.1 µM [activator, partial curve, poor fit] | –
COC(=O)c1ccc(NC(=O)Nc2ccc(F)cc2F)cc1 | active: 3.16 µM | –
O=C1c2ccccc2NC(c2ccccn2)N1c1ccc(Cl)cc1 (stereo not given) | active: 11.2 µM | –

Structure (SMILES) | Potency | activation
Cc1ccc(C(=O)Nc2ccc(S(=O)(=O)NCc3ccco3)cc2)cc1 | inactive | –
O=C(Nc1ccc(NC(=O)c2ccccc2F)cn1)c1ccco1 | inconclusive: 1.58 µM [activator, partial curve, poor fit] | –
Cc1cc2nc(-c3ccc(SCC(=O)Nc4ccc(S(=O)(=O)NC5CC5)cc4)nc3)[nH]c2cc1C | inconclusive: 3.16 µM [activator, partial curve, poor fit] | –
Nc1cccc(N=[N+]([O-])c2cccc(N)c2)c1 | inconclusive: 22.4 µM [activator, single point] | –
O=C1NCCN/C1=C\C(=O)c1cccc(Br)c1 | active: 11.2 µM | –
CN(C)S(=O)(=O)c1cccc(C(=O)N=C2N=C3C=CC(Cl)=CN3Cc3ccccc32)c1 | inconclusive: 1.78 µM [activator, full curve, poor fit] | –
CN(C)c1cccc(-c2cc(Nc3ccc(C(C)(C)C)cc3)ncn2)c1 | inconclusive: 35.5 µM [activator, single point] | –
COc1ccc2cnn(CCOc3ccccc3)c(=O)c2c1OC | inconclusive: 1.12 µM [activator, full curve, poor fit] | –
COc1ccc2oc(=N)c(C(=O)Nc3cccc(C)c3C)cc2c1 | inconclusive: 14.1 µM [activator, partial curve, poor fit] | –
c1nc(C2CCCCC2)cc2cc3c(cc12)OCO3 | inconclusive: 12.6 µM [activator, partial curve, poor fit] | –
Cc1ccc2c(=O)cc(C(=O)NCc3ccccc3)oc2c1C | inactive | –
Cc1nn(CCC(=O)NNC(=S)NCC(C)C)c(C)c1Br | inactive | –
Nc1c(-c2ccccc2)cnc2cc(-c3ccccc3)nn12 | inconclusive: 0.316 µM [activator, full curve, poor fit] | –
Cc1cc(-c2nc(-c3ccncc3)no2)ccc1[N+](=O)[O-] | inconclusive: 1.26 µM [activator, full curve, poor fit] | –
CCCn1c(SCC(=O)Nc2cc(S(=O)(=O)N3CCOCC3)ccc2OC)n[nH]c1=O | inactive | –
OC(CNc1nc2ccccc2s1)c1ccccc1 (stereo not given) | inconclusive: 20 µM [activator, single point] | –
ClC1(Cl)CC1Cn1c(C2CC2)nc2ccccc21 (stereo not given) | inactive | –
Cc1cc(Cl)n2ncc(-c3ccccc3)c2n1 | inconclusive: 20 µM [activator, single point] | –
CCCNC(=O)C1(C)CCCN(Cc2ccsc2)C1 (stereo not given) | inactive | –
O=C(CCCn1c(=O)[nH]c2ccsc2c1=O)NC1CCCCC1 | inactive | –
Cc1cccc(Nc2nc(-c3ccc4c(c3)OCCO4)cs2)c1 | inconclusive: 1.58 µM [activator, partial curve, poor fit] | –
Brc1ccc(/C=N/Nc2nc3ccccc3o2)cc1 | inconclusive: 3.98 µM [activator, full curve, poor fit] | –
O=c1oc(Cc2ccccc2)nc2ccccc12 | inconclusive: 22.4 µM [activator, single point] | –
Cc1nonc1OCCCNc1ccc([N+](=O)[O-])cc1Cl | inconclusive: 7.94 µM [activator, partial curve, poor fit] | –
O=C(NCC1CCCO1)c1sc2cc(Cl)ccc2c1Cl (stereo not given) | active: 10 µM | –

Source: PubChem BioAssay AID624202 (National Center for Advancing Translational Sciences (NCATS), 2012)
